From the supplement of paper PMC8728848
This is one part of the list.

How the values were obtained:
Experiment in all cases: glycan array binding signal (z-score within array); higher = stronger binding
Conditions in all cases: glycan notation: IUPAC condensed, linker removed; mutation: E41G
[1] = target: Fuc(a1-2)[GalNAc(a1-3)]Gal(b1-3)GlcNAc(b1-3)GalNAc
Procedure, shortened: (§1)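 Glycan array binding is given as a within-array Z-score, which can be read as non-binding when negative. The arrays, 3228 of them, came from the Consortium for Functional Glycomics database and were retained only where the protein sequence was available. Z-scores were averaged across arrays of the same protein sequence at different concentrations or buffers and across linkers.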

[2] = target: Fuc(a1-2)[GalNAc(a1-3)]Gal(b1-3)GlcNAc(b1-6)GalNAc
Procedure, shortened: as §1

[3] = target: Fuc(a1-2)[GalNAc(a1-3)]Gal(b1-4)Glc
Procedure, shortened: as §1

[4] = target: Fuc(a1-2)[GalNAc(a1-3)]Gal(b1-4)GlcNAc
Procedure, shortened: as §1

[5] = target: Fuc(a1-2)[GalNAc(a1-3)]Gal(b1-4)GlcNAc(b1-2)Man
Procedure, shortened: as §1

[6] = target: Fuc(a1-2)[GalNAc(a1-3)]Gal(b1-4)GlcNAc(b1-2)Man(a1-3)[Fuc(a1-2)[GalNAc(a1-3)]Gal(b1-4)GlcNAc(b1-2)Man(a1-6)]Man(b1-4)GlcNAc(b1-4)GlcNAc
Procedure, shortened: as §1

[7] = target: Fuc(a1-2)[GalNAc(a1-3)]Gal(b1-4)GlcNAc(b1-2)Man(a1-3)[Fuc(a1-2)[GalNAc(a1-3)]Gal(b1-4)GlcNAc(b1-2)Man(a1-6)]Man(b1-4)GlcNAc(b1-4)[Fuc(a1-6)]GlcNAc
Procedure, shortened: as §1

[8] = target: Fuc(a1-2)[GalNAc(a1-3)]Gal(b1-4)GlcNAc(b1-3)Gal(b1-4)GlcNAc
Procedure, shortened: as §1

[9] = target: Fuc(a1-2)[GalNAc(a1-3)]Gal(b1-4)GlcNAc(b1-3)Gal(b1-4)GlcNAc(b1-3)Gal(b1-4)GlcNAc
Procedure, shortened: as §1

[10] = target: Fuc(a1-2)[GalNAc(a1-3)]Gal(b1-4)GlcNAc(b1-3)GalNAc
Procedure, shortened: as §1

[11] = target: Fuc(a1-2)[GalNAc(a1-3)]Gal(b1-4)GlcNAc(b1-3)[Fuc(a1-2)[GalNAc(a1-3)]Gal(b1-4)GlcNAc(b1-6)]GalNAc
Procedure, shortened: as §1

[12] = target: Fuc(a1-2)[GalNAc(a1-3)]Gal(b1-4)GlcNAc(b1-6)GalNAc
Procedure, shortened: as §1

[13] = target: Fuc(a1-2)[GalNAc(a1-3)]Gal(b1-4)[Fuc(a1-3)]GlcNAc
Procedure, shortened: as §1

[14] = target: Fuc(a1-2)[GalNAc(a1-3)]Gal(b1-4)[Fuc(a1-3)]GlcNAc(b1-3)GalNAc
Procedure, shortened: as §1

[15] = target: Fuc(a1-2)[GalNAc(a1-4)]Gal(b1-4)GlcNAc
Procedure, shortened: as §1

[16] = target: Fuc(a1-2)[GalNAc(b1-3)]Gal
Procedure, shortened: as §1

Fuc(a1-3)GlcNAc = target: Fuc(a1-3)GlcNAc
Procedure, shortened: as §1

[17] = target: Fuc(a1-3)[Gal(b1-4)]Glc6S
Procedure, shortened: as §1

[18] = target: Fuc(a1-3)[Gal(b1-4)]GlcNAc
Procedure, shortened: as §1

[19] = target: Fuc(a1-3)[Gal(b1-4)]GlcNAc(b1-2)Man
Procedure, shortened: as §1

[20] = target: Fuc(a1-3)[Gal(b1-4)]GlcNAc(b1-2)Man(a1-3)[Fuc(a1-3)[Gal(b1-4)]GlcNAc(b1-2)Man(a1-6)]Man(b1-4)GlcNAc(b1-4)GlcNAc
Procedure, shortened: as §1

[21] = target: Fuc(a1-3)[Gal(b1-4)]GlcNAc(b1-2)Man(a1-3)[Fuc(a1-3)[Gal(b1-4)]GlcNAc(b1-2)Man(a1-6)]Man(b1-4)GlcNAc(b1-4)[Fuc(a1-6)]GlcNAc
Procedure, shortened: as §1

[22] = target: Fuc(a1-3)[Gal(b1-4)]GlcNAc(b1-3)Gal(b1-3)[Fuc(a1-4)]GlcNAc
Procedure, shortened: as §1

[23] = target: Fuc(a1-3)[Gal(b1-4)]GlcNAc(b1-3)Gal(b1-4)[Fuc(a1-3)]GlcNAc
Procedure, shortened: as §1

[24] = target: Fuc(a1-3)[Gal(b1-4)]GlcNAc(b1-3)Gal(b1-4)[Fuc(a1-3)]GlcNAc(b1-3)Gal(b1-4)[Fuc(a1-3)]GlcNAc
Procedure, shortened: as §1

[25] = target: Fuc(a1-3)[Gal(b1-4)]GlcNAc(b1-3)GalNAc
Procedure, shortened: as §1

[26] = target: Fuc(a1-3)[Gal(b1-4)]GlcNAc(b1-6)GalNAc
Procedure, shortened: as §1

[27] = target: Fuc(a1-3)[Gal(b1-4)]GlcNAc(b1-6)[Gal(b1-3)GlcNAc(b1-3)]Gal(b1-4)Glc
Procedure, shortened: as §1

[28] = target: Fuc(a1-3)[Gal(b1-4)]GlcNAc6S
Procedure, shortened: as §1

[29] = target: Fuc(a1-3)[Gal3S(b1-4)]Glc
Procedure, shortened: as §1

[30] = target: Fuc(a1-3)[Gal3S(b1-4)]GlcNAc
Procedure, shortened: as §1

[31] = target: Fuc(a1-3)[Gal3S(b1-4)]GlcNAc6S
Procedure, shortened: as §1

[32] = target: Fuc(a1-3)[GalNAc(b1-4)]GlcNAc
Procedure, shortened: as §1

[33] = target: Fuc(a1-3)[GalNAc(b1-4)]GlcNAc6S
Procedure, shortened: as §1

Fuc(a1-4)GlcNAc = target: Fuc(a1-4)GlcNAc
Procedure, shortened: as §1

Fuc(b1-3)GlcNAc = target: Fuc(b1-3)GlcNAc
Procedure, shortened: as §1

Gal(a1-2)Gal = target: Gal(a1-2)Gal
Procedure, shortened: as §1

B1: CVN-E41G (protein)
chain: MHHHHHHENLYFQSGNFSQACYNSAIQGSVLTSTCIRTNGGYNTSSIDLNSVIGNVDGSLKWQGSNFIETCRNTQLAGSSELAAECKTRAQQFVSTKINLDDHIAAIDGTLKYE
- glycan array binding signal (z-score) [1]: -0.119
- glycan array binding signal (z-score) [2]: -0.162
- glycan array binding signal (z-score) [3]: -0.186
- glycan array binding signal (z-score) [4]: -0.166
- glycan array binding signal (z-score) [5]: -0.154
- glycan array binding signal (z-score) [6]: -0.013
- glycan array binding signal (z-score) [7]: 0.483
- glycan array binding signal (z-score) [8]: -0.139
- glycan array binding signal (z-score) [9]: -0.163
- glycan array binding signal (z-score) [10]: -0.161
- glycan array binding signal (z-score) [11]: -0.167
- glycan array binding signal (z-score) [12]: -0.179
- glycan array binding signal (z-score) [13]: -0.121
- glycan array binding signal (z-score) [14]: -0.142
- glycan array binding signal (z-score) [15]: -0.166
- glycan array binding signal (z-score) [16]: -0.125
- glycan array binding signal (z-score) (Fuc(a1-3)GlcNAc): -0.168
- glycan array binding signal (z-score) [17]: -0.089
- glycan array binding signal (z-score) [18]: -0.18
- glycan array binding signal (z-score) [19]: -0.166
- glycan array binding signal (z-score) [20]: -0.129
- glycan array binding signal (z-score) [21]: -0.101
- glycan array binding signal (z-score) [22]: -0.081
- glycan array binding signal (z-score) [23]: 0.036
- glycan array binding signal (z-score) [24]: -0.171
- glycan array binding signal (z-score) [25]: -0.166
- glycan array binding signal (z-score) [26]: -0.128
- glycan array binding signal (z-score) [27]: -0.166
- glycan array binding signal (z-score) [28]: -0.141
- glycan array binding signal (z-score) [29]: -0.188
- glycan array binding signal (z-score) [30]: -0.175
- glycan array binding signal (z-score) [31]: -0.133
- glycan array binding signal (z-score) [32]: -0.105
- glycan array binding signal (z-score) [33]: -0.114
- glycan array binding signal (z-score) (Fuc(a1-4)GlcNAc): -0.14
- glycan array binding signal (z-score) (Fuc(b1-3)GlcNAc): -0.165
- glycan array binding signal (z-score) (Gal(a1-2)Gal): -0.139
